We go through 40 sequences from publication PMC12820563, “FoxP3 forms a head-to-head dimer in vivo and stabilizes its multimerization on adjacent microsatellites”.

The other results are listed elsewhere or left out.

This assay deals with T1, MBP-FoxP1dN (Mus musculus, UniProt P58462 326-579).
T1 sequence: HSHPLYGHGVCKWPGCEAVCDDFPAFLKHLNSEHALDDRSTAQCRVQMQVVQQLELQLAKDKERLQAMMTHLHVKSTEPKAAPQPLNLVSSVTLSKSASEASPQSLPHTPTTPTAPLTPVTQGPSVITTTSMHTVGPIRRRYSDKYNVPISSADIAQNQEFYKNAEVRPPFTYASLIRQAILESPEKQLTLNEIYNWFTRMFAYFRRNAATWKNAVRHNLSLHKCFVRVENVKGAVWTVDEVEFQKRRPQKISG
The assay can be described thus: PD-seq (MBP pull-down with sequencing); 20 mM Tris-HCl pH 7.5, 100 mM NaCl, 1.5 mM MgCl2, 0.4 uM protein, 0.1 uM dsDNA library, 30 min, room temperature, amylose pull-down; high values mean tight binding. The conditions noted are these: protein: recombinant; tags: His6-MBP; chain copies: 2; dsDNA, one strand shown. The essentials: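 A fragment of mouse FoxP3 or FoxP1 without its N-terminus, carrying a His6-MBP tag and produced in E. coli, was combined at 0.4 µM with a 0.1 µM degenerate double-stranded DNA library filled in with Klenow. The mixture sat for 30 min at room temperature in Tris pH 7.5 buffer containing NaCl and MgCl2. Protein–DNA complexes were captured on amylose resin, washed three times, and the DNA was freed with proteinase K, barcoded by PCR and sequenced on Illumina. Binding is expressed as reads-per-million enrichment of pull-down over input, with replicates pooled.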
Turning to “GATGATTGTTCTCCCAGCTGATGAATTATCGTTTTCGAGTAAACAAATTTTCCTAATCTTTCTGTTCAAGCGCCATCTAC”, the binding signal was 1.18 RPM ratio (pull-down/input). Next, “GATGATTGTTCTCCCAGCTGATGAATTGCCTGGCTCGAGTAAACAAATTTTCCTAATCTTTCTGTTCAAGCGCCATCTAC”: 0.809 RPM ratio (pull-down/input); “GATGATTGTTCTCCCAGCTGATGAATTACCCATTTCGAGTAAACAAATTTTCCTAATCTTTCTGTTCAAGCGCCATCTAC”: 0.997 RPM ratio (pull-down/input); “GATGATTGTTCTCCCAGCTGATGAATTAGGACAATCGAGTAAACAAATTTTCCTAATCTTTCTGTTCAAGCGCCATCTAC”: 1.24 RPM ratio (pull-down/input). With “GATGATTGTTCTCCCAGCTGATGAATTGCATTAGTCGAGTAAACAAATTTTCCTAATCTTTCTGTTCAAGCGCCATCTAC”, the binding signal is 1.27 RPM ratio (pull-down/input). For “GATGATTGTTCTCCCAGCTGATGAATTCGCTGCGTCGAGTAAACAAATTTTCCTAATCTTTCTGTTCAAGCGCCATCTAC”, the binding signal is 0.945 RPM ratio (pull-down/input).

On to “GATGATTGTTCTCCCAGCTGATGAATTGCCCCCGTCGAGTAAACAAATTTTCCTAATCTTTCTGTTCAAGCGCCATCTAC”, for which the binding signal is 0.928 RPM ratio (pull-down/input). Then “GATGATTGTTCTCCCAGCTGATGAATTGCTTTCCTCGAGTAAACAAATTTTCCTAATCTTTCTGTTCAAGCGCCATCTAC”, with 1.2 RPM ratio (pull-down/input); and “GATGATTGTTCTCCCAGCTGATGAATTAACCTGTTCGAGTAAACAAATTTTCCTAATCTTTCTGTTCAAGCGCCATCTAC”, with 0.867 RPM ratio (pull-down/input); and “GATGATTGTTCTCCCAGCTGATGAATTTGATTCGTCGAGTAAACAAATTTTCCTAATCTTTCTGTTCAAGCGCCATCTAC”, with 0.812 RPM ratio (pull-down/input). Consider “GATGATTGTTCTCCCAGCTGATGAATTATTTTTGTCGAGTAAACAAATTTTCCTAATCTTTCTGTTCAAGCGCCATCTAC”, for which the binding signal was 1.37 RPM ratio (pull-down/input).

As for “GATGATTGTTCTCCCAGCTGATGAATTATCGAGGTCGAGTAAACAAATTTTCCTAATCTTTCTGTTCAAGCGCCATCTAC”, the binding signal is 0.84 RPM ratio (pull-down/input). Next, “GATGATTGTTCTCCCAGCTGATGAATTGGCTTCATCGAGTAAACAAATTTTCCTAATCTTTCTGTTCAAGCGCCATCTAC”: 0.889 RPM ratio (pull-down/input). In the case of “GATGATTGTTCTCCCAGCTGATGAATTCCGTGTATCGAGTAAACAAATTTTCCTAATCTTTCTGTTCAAGCGCCATCTAC”, the binding signal is 1.1 RPM ratio (pull-down/input). Next, “GATGATTGTTCTCCCAGCTGATGAATTGCATCCGTCGAGTAAACAAATTTTCCTAATCTTTCTGTTCAAGCGCCATCTAC”: 1.43 RPM ratio (pull-down/input).

Turning to “GATGATTGTTCTCCCAGCTGATGAATTTACCATGTCGAGTAAACAAATTTTCCTAATCTTTCTGTTCAAGCGCCATCTAC”, the binding signal is 1.28 RPM ratio (pull-down/input).

On to “GATGATTGTTCTCCCAGCTGATGAATTGCGGCAGTCGAGTAAACAAATTTTCCTAATCTTTCTGTTCAAGCGCCATCTAC”, for which the binding signal was 0.919 RPM ratio (pull-down/input). Then “GATGATTGTTCTCCCAGCTGATGAATTACGAGCCTCGAGTAAACAAATTTTCCTAATCTTTCTGTTCAAGCGCCATCTAC”, with 0.926 RPM ratio (pull-down/input). As to “GATGATTGTTCTCCCAGCTGATGAATTAGTAGGCTCGAGTAAACAAATTTTCCTAATCTTTCTGTTCAAGCGCCATCTAC”, the binding signal was 0.798 RPM ratio (pull-down/input).

Regarding “GATGATTGTTCTCCCAGCTGATGAATTTTGTTGCTCGAGTAAACAAATTTTCCTAATCTTTCTGTTCAAGCGCCATCTAC”, the binding signal is 1.79 RPM ratio (pull-down/input). Regarding “GATGATTGTTCTCCCAGCTGATGAATTCGGATGCTCGAGTAAACAAATTTTCCTAATCTTTCTGTTCAAGCGCCATCTAC”, the binding signal is 1.08 RPM ratio (pull-down/input). Next, “GATGATTGTTCTCCCAGCTGATGAATTGGAAATTTCGAGTAAACAAATTTTCCTAATCTTTCTGTTCAAGCGCCATCTAC”: 0.843 RPM ratio (pull-down/input); “GATGATTGTTCTCCCAGCTGATGAATTGAGGATGTCGAGTAAACAAATTTTCCTAATCTTTCTGTTCAAGCGCCATCTAC”: 0.89 RPM ratio (pull-down/input). Next, “GATGATTGTTCTCCCAGCTGATGAATTCTGATGGTCGAGTAAACAAATTTTCCTAATCTTTCTGTTCAAGCGCCATCTAC”: 0.826 RPM ratio (pull-down/input); “GATGATTGTTCTCCCAGCTGATGAATTGAGAAATTCGAGTAAACAAATTTTCCTAATCTTTCTGTTCAAGCGCCATCTAC”: 0.906 RPM ratio (pull-down/input); “GATGATTGTTCTCCCAGCTGATGAATTCCTGTATTCGAGTAAACAAATTTTCCTAATCTTTCTGTTCAAGCGCCATCTAC”: 1.3 RPM ratio (pull-down/input). Then “GATGATTGTTCTCCCAGCTGATGAATTTGTCGTTTCGAGTAAACAAATTTTCCTAATCTTTCTGTTCAAGCGCCATCTAC”, with 1.1 RPM ratio (pull-down/input); and “GATGATTGTTCTCCCAGCTGATGAATTAGAAGAATCGAGTAAACAAATTTTCCTAATCTTTCTGTTCAAGCGCCATCTAC”, with 0.994 RPM ratio (pull-down/input); and “GATGATTGTTCTCCCAGCTGATGAATTGAATCTTTCGAGTAAACAAATTTTCCTAATCTTTCTGTTCAAGCGCCATCTAC”, with 0.846 RPM ratio (pull-down/input). For the sequence “GATGATTGTTCTCCCAGCTGATGAATTACGACTGTCGAGTAAACAAATTTTCCTAATCTTTCTGTTCAAGCGCCATCTAC”, the binding signal was 0.982 RPM ratio (pull-down/input). As to “GATGATTGTTCTCCCAGCTGATGAATTAGATCTGTCGAGTAAACAAATTTTCCTAATCTTTCTGTTCAAGCGCCATCTAC”, the binding signal is 0.837 RPM ratio (pull-down/input).

“GATGATTGTTCTCCCAGCTGATGAATTAGCGGAGTCGAGTAAACAAATTTTCCTAATCTTTCTGTTCAAGCGCCATCTAC”: the binding signal was 0.826 RPM ratio (pull-down/input).

“GATGATTGTTCTCCCAGCTGATGAATTAGCGGGTTCGAGTAAACAAATTTTCCTAATCTTTCTGTTCAAGCGCCATCTAC”: the binding signal is 0.808 RPM ratio (pull-down/input). Then “GATGATTGTTCTCCCAGCTGATGAATTGTCAATTTCGAGTAAACAAATTTTCCTAATCTTTCTGTTCAAGCGCCATCTAC”, with 1.14 RPM ratio (pull-down/input); and “GATGATTGTTCTCCCAGCTGATGAATTCAGCTGCTCGAGTAAACAAATTTTCCTAATCTTTCTGTTCAAGCGCCATCTAC”, with 0.744 RPM ratio (pull-down/input).

Turning to “GATGATTGTTCTCCCAGCTGATGAATTTGGTGCCTCGAGTAAACAAATTTTCCTAATCTTTCTGTTCAAGCGCCATCTAC”, the binding signal is 0.873 RPM ratio (pull-down/input). For “GATGATTGTTCTCCCAGCTGATGAATTACTCTCCTCGAGTAAACAAATTTTCCTAATCTTTCTGTTCAAGCGCCATCTAC”, the binding signal is 0.961 RPM ratio (pull-down/input). Then “GATGATTGTTCTCCCAGCTGATGAATTTGCCAAATCGAGTAAACAAATTTTCCTAATCTTTCTGTTCAAGCGCCATCTAC”, with 1.07 RPM ratio (pull-down/input); and “GATGATTGTTCTCCCAGCTGATGAATTACTTGCTTCGAGTAAACAAATTTTCCTAATCTTTCTGTTCAAGCGCCATCTAC”, with 1.01 RPM ratio (pull-down/input).

Regarding “GATGATTGTTCTCCCAGCTGATGAATTAAGGACGTCGAGTAAACAAATTTTCCTAATCTTTCTGTTCAAGCGCCATCTAC”, the binding signal was 0.899 RPM ratio (pull-down/input).
